Experimental data taken from PMC12136788.
The other results are listed elsewhere or left out.

T1: UNK ZnF1-3 (human, UniProt Q9C0B0 31-174)
T1 sequence: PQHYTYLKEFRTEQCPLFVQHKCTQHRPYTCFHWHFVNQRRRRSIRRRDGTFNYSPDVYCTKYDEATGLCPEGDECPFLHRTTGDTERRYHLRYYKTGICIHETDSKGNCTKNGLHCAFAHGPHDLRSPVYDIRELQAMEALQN

B1: chr15:51794541:51794542:-_ENSMUSG00000022314_ENSMUST00000022927|mus_hu|FALSE|FALSE (ssRNA)
RNA: GGGAGUUCUACAGUCCGACGAUCCUGAAGUCUGAGUUUCAAAAGUGAUUUUUUUUUCCCACAAAAGUUUCAACACUUAAGCUAGAACUUUCAGUGUUAACUUUGCCCUAAAAAGUUAAGACAUUCUGAUAAUCAUAACAGUCACAACAGAGGAUUGAGCAUCA
B2: chr4:25749455:25749456:-_ENSG00000091490_ENST00000264868|hu_hu|hu_hu_hu_mus_False|68_88 (ssRNA)
RNA: GGGAGUUCUACAGUCCGACGAUCGCACUAUGACCUCUAGAAAAAUCAUUCAAGGAGAAAAAUGUAAACCAAUUUACAAUGUUAUCGCCUUCCCUGUGUGUGGAGUGUUUGUCUCAAGGCUCCUUCUAGCUGCUGGAUUUGGGACAACAGAGGAUUGAGCAUCA
B3: chr3:10168198:10168199:+_ENSG00000254999_ENST00000256463|hu_hu|motif|central (ssRNA)
RNA: GGGAGUUCUACAGUCCGACGAUCUGUCUCAAAUACAUUGACAAGUAGAUGUAUAAAAUGUUACUGAAAAGGUAAAAUGCCGGACGUCGUUUCCAACGGUUCCUCUGAACUUCUUCCCACAUACCACACCACACCCCAGAUGGCCAACAGAGGAUUGAGCAUCA
B4: chr2:70106199:70106200:+_ENSG00000087338_ENST00000282570|hu_hu|motif|central (ssRNA)
RNA: GGGAGUUCUACAGUCCGACGAUCCGAUGUGAAUAUCAGUAGGGCCAUUAAAUUAAAGCUGGCCUAAAAAGUUUUCAAAGUGCGGCUGUUUCCAACUGAUGAAAUCUUCAGUUUUCUGGAUUUUCUGGGUGACGAUUAUUUUCACAACAGAGGAUUGAGCAUCA
B5: chr2:153237265:153237266:-_ENSMUSG00000061411_ENSMUST00000109784|mus_mus|motif|central (ssRNA)
RNA: GGGAGUUCUACAGUCCGACGAUCAAAAAAAAGAAAAGAAAAGUGUCCUUGUGCCCAAAGUCUCAGAUGCUUGGAGUGCAGCGGGAAACAGCUCUUUUGGAUCCCACCUCUUUCAGAAAACAGUGUACCAACUGGUGAGGCAGGCAACAGAGGAUUGAGCAUCA
B6: chr2:179515052:179515053:+_ENSMUSG00000000305_ENSMUST00000000314|mus_hu|mus_mus_mus_hu_False|38_88 (ssRNA)
RNA: GGGAGUUCUACAGUCCGACGAUCGCUGUCCCAUGCAGUCACCGUGAAGGCCACCUGCUCGGAGGGGACCUGCAGCUCCCGGGUGGCGAAGACUGUCCCAUCCGCCCCAACUUUGAAGUCCAUGCUGUUGGUCUCAUAUUGUGUCAACAGAGGAUUGAGCAUCA
B7: chr1:163112212:163112213:-_ENSG00000143248_ENST00000313961|hu_hu|hu_hu_hu_mus_False|88_108 (ssRNA)
RNA: GGGAGUUCUACAGUCCGACGAUCUUUAUUUAUCCAGAAGAGUGAGUCACAUAGUACGCAAAGUAUUGGAUACAAUAAUCAGGAAACAAACACUAUUGGUCCAGAAUUUAAAACUUUAUGAGCGAAGUGCUGGCACAGGACUUACAACAGAGGAUUGAGCAUCA
B8: chr7:135612270:135612271:-_ENSG00000105887_ENST00000393085|hu_mus|hu_hu_hu_mus_False|58_98 (ssRNA)
RNA: GGGAGUUCUACAGUCCGACGAUCGUUUUUUUCUGAGUAAGUAUUACGUACUUCAGUGGAAAACAAAACUUAACCUUUCGCUAAUGCGUGUUGUACCAAAAGCAGACAUUUUAGCUUCAUUUAUUCAAAAAUAUUAACAUUAAGCAACAGAGGAUUGAGCAUCA
B9: chr1:163112212:163112213:-_ENSG00000143248_ENST00000313961|hu_hu|hu_hu_hu_mus_False|68_78 (ssRNA)
RNA: GGGAGUUCUACAGUCCGACGAUCUUUUAUUAUCAGUAAGAGUGAGUUACAUACUAGAUAAAGUAUUGAAUACAAAAAUCAGGAAACAAACACUAUUGGUCCAGAAUUUAAAACUUUAUGAGCGAAGUGCUGGCACAGGACUUACAACAGAGGAUUGAGCAUCA
B10: chr16:9197081:9197082:+_ENSG00000182831_ENST00000327827|perfect_dup|FALSE|FALSE (ssRNA)
RNA: GGGAGUUCUACAGUCCGACGAUCAAGACCAUGCAGAGCUAUGGCUUCCCGGAAGGGUUGCAAAUCAGUCUCUACAGAUGAGCUAGUUUCCGUUGAAGUAGCUCGGUUAGGGGACACUACAGUCAGUCUUGGGGGAGCUCUAGACAACAGAGGAUUGAGCAUCA
B11: chr6:168291551:168291552:+_ENSG00000130396_ENST00000400822|hu_mus|FALSE|FALSE (ssRNA)
RNA: GGGAGUUCUACAGUCCGACGAUCAUGUUUCUUCAUUUUCUUUGGGAUGUAGUCCGGUGGUCUCCUCUUCAACUGAAAGACUAAAAUCCCUUUGUCACUUGGCCAUUCCCUGAAGAUUUGUAAAGGACAUUCAUCAUCGUCAAGCAACAGAGGAUUGAGCAUCA
B12: chr16:32614670:32614671:+_ENSMUSG00000022797_ENSMUST00000023486|mus_hu|FALSE|FALSE (ssRNA)
RNA: GGGAGUUCUACAGUCCGACGAUCUACAGCAAGUUUCAUCUCCACAUGACUGUUAUCGCCAUCUACUUGCCGAGCCAGGCUGAACCGGGUAUAUGACAAUGGUUCUCCACCAAACAAGUUAGAGAAUGCUGAUCUAGCUUGAUCCAACAGAGGAUUGAGCAUCA
B13: chr2:153055717:153055718:-_ENSMUSG00000051413_ENSMUST00000056924|mus_mus|FALSE|FALSE (ssRNA)
RNA: GGGAGUUCUACAGUCCGACGAUCGAGGUCUCAAAGGCUCCACAAUGGUGGUCCCUGAGCUGCCUCCCUUCCAUGCACGGGAAAAACCCAUACAGAACCGAGAUGAAAUGGGUUAGGAAUUGUUCAGCUGCUUCUGGGCAAGGGCAACAGAGGAUUGAGCAUCA
B14: 3723961_3724081_3604_CDS_ENSG00000110713_ENST00000324932|human|control|control (ssRNA)
RNA: GGGAGUUCUACAGUCCGACGAUCGGGCAUUGUGAACACAGAAGUCAGGGGUGGAGGGACAGACCAAGAGGAUGUGGAUGGGAUAUUCAUUAAAGAUGCUGCUCUGGGAGUACGACAUUCUUGCACAGAGACACUUGGUGAAAGCAACAGAGGAUUGAGCAUCA
B15: chr3:148802587:148802588:-_ENSG00000071794_ENST00000310053|hu_mus|hu_hu_hu_mus_False|1_1 (ssRNA)
RNA: GGGAGUUCUACAGUCCGACGAUCUCCAACAACUUGUCCUCUCAUAGUUCCAAAUAAAACCAAAUCUUGCUCUUCAUCACUCGUUAGGAAGUCAUCUGGAGGAAUAAUGUCUUGGAAUUCAAAAUGUGGCAAGAAAGUUGGAUACAACAGAGGAUUGAGCAUCA
B16: chr9:21312366:21312367:-_ENSMUSG00000032180_ENSMUST00000034698|mus_hu|FALSE|FALSE (ssRNA)
RNA: GGGAGUUCUACAGUCCGACGAUCCUUGUUAGGCCCUGCCCCGCACCAGGCAACGCUAACACAGGAUGGGAGGCUUAGGCUAAGGCACAUUUACAGUAGAGGGGCCAGGAAAUCCGAGGCUCACGUUCCAACGCUGCAGUGCCCCAACAGAGGAUUGAGCAUCA
B17: chr20:17587764:17587765:+_ENSG00000125868_ENST00000474024|hu_hu|FALSE|FALSE (ssRNA)
RNA: GGGAGUUCUACAGUCCGACGAUCGUGGCACUGAAUAAUCUACACAGGGCAUCCUUCAAAGGCUACAAUUAAGGAUCCACCUAACUUUUCAGCAAUACAAGCCCGAUUGAGAUCUUCUGGUCCAUUUGCUUGACAUUCAUGUUUCAACAGAGGAUUGAGCAUCA
B18: 424969_440308_2181_CDS_ENSG00000141252_ENST00000437048|human|control|control (ssRNA)
RNA: GGGAGUUCUACAGUCCGACGAUCCAGCAGCAGCUGUUCUGCUCCCACCAUGCUAAUUGGCUUGCACUUGAAGAGGUGGGUGAUGAAUUUGGGAAUGAAGGAGUUUGCAAAUUUAACGCAGAACUGAGUGAAGUACUUGCGUGUCAACAGAGGAUUGAGCAUCA
B19: chr3:7442581:7442582:+_ENSMUSG00000027499_ENSMUST00000028999|mus_hu|FALSE|FALSE (ssRNA)
RNA: GGGAGUUCUACAGUCCGACGAUCUAUUGUACAAUACAAAACAGUGUAAAUAACACAGCAGUAACACACAGAUACGUAAUGCUAAAAACAGUGCUUUCUGGAUCUUUCUUUUACUGGGUGAACACUUGAGCCAGAGAUAUUUAACAACAGAGGAUUGAGCAUCA
B20: 37564108_37564228_4529_CDS_ENSG00000125686_ENST00000300651|human|control|control (ssRNA)
RNA: GGGAGUUCUACAGUCCGACGAUCUGCUGGUGACUUACUAUGGCUGGGAGAGCCACGCUCAUGCUUUGGAGUGGAACCACUGAUGAGUGGAGAGCCAUAGUUUUUAGAAGAAGCCAUUUGAGGCCUAAGCCCUUCUCCACUACUCAACAGAGGAUUGAGCAUCA
B21: chr6:36887377:36887378:+_ENSG00000198663_ENST00000480824|hu_mus|FALSE|FALSE (ssRNA)
RNA: GGGAGUUCUACAGUCCGACGAUCUGUUCGGCACUGGAAGGGAGGGAUGAGCUGCAACAUGGCUUCCCCGCUGCCGAGGGUGAACAGGUCAUGCACCUUAUGCAUCUUGCUACCCACCACAGGUUCCGGCUGGAUCAGGAAACACAACAGAGGAUUGAGCAUCA
B22: chr2:33267772:33267773:-_ENSMUSG00000068966_ENSMUST00000091037|mus_hu|FALSE|FALSE (ssRNA)
RNA: GGGAGUUCUACAGUCCGACGAUCCAUUCUUCCAGUGUAACAAAAAGAAAGCAACUGCUCAAACACAUUGGGAUUUUUAAUCACUGAUAUUGACAAGCCACUCAUGGUACUUAACGCUGAAUGGUCCCGGAAAUAUGGGGAGCUCAACAGAGGAUUGAGCAUCA

Target: T1, UNK ZnF1-3
Test: nsRBNS (natural sequence RNA bind-n-seq); RBNS binding buffer (assumed for nsRBNS): 25 mM Tris pH 7.5, 150 mM KCl, 3 mM MgCl2, 0.01% Triton X-100, 500 ug/ml BSA, 20 U/ml SUPERase-In, 4 C; UNK is unkempt and MSI1 is Musashi-1; names of the RNAs are library labels; protein concentration not given here; high values mean tight binding

Binder	binding signal
B1	0.496 enrichment R
B2	1.11 enrichment R
B3	1.21 enrichment R
B4	0.809 enrichment R
B5	1.35 enrichment R
B6	0.771 enrichment R
B7	1.71 enrichment R
B8	0.623 enrichment R
B9	1.27 enrichment R
B10	1.33 enrichment R
B11	0.773 enrichment R
B12	0.744 enrichment R
B13	0.944 enrichment R
B14	2.01 enrichment R
B15	0.979 enrichment R
B16	0.709 enrichment R
B17	1.1 enrichment R
B18	1.18 enrichment R
B19	0.774 enrichment R
B20	0.879 enrichment R
B21	1.26 enrichment R
B22	1.49 enrichment R
